As usually defined, the % Inhibition is the relative decrease from the control value, in per cent.

Molecules are shown by their SMILES. Out of some 150,000 compounds screened, about 540 (0.36%) showed an effect of 50% or more. The list shows a part of the results.

This assay relates to Plasmodium falciparum. In words: Primary screen in NF54 nanoGlo assay, in single point, at 2uM, 72h; a lower Z score goes with more inhibition. The assay is classed as functional, Erythrocyte. To be noted: timepoint 72 hour.
`COc1ccccc1-n1c(N)c(-c2nc3ccccc3n2Cc2ccccc2)c2nc(C#N)c(C#N)nc21`: the “% Inhibition” value is reported as -1% and the Z score was found to be 0.11.
The matching figures for `Cc1cccc(S(=O)(=O)NCCC(N)=O)c1F`: 2% and -0.28.
On the same counts, the results for `Cc1nc(C(=O)NC[C@@H](c2ccco2)N2CCCC2)cs1` are -17% and 3.35.
The matching figures for `CCOc1ccc(-c2nc(C(N)=O)c3c(n2)n(-c2ccc(C)c(C)c2)c(=O)n3Cc2ccccc2)cc1`: -3% and 0.44.
Consider `O=C1C2CCCCC2C(=O)N1CN1CCCCC1` (stereo unspecified), for which the “% Inhibition” value is on record as -1% and the Z score was 0.15.
On to `Cc1ccccc1NC(=O)CC(=O)N(C)Cc1snnc1C`, for which the “% Inhibition” value was -4% and the Z score is 0.53.
As for `c1cc2ccc(-c3noc(CC4CCOCC4)n3)cc2[nH]1`, the “% Inhibition” value is listed as -2% and the Z score was determined as 0.22.
The matching figures for `Cc1noc(CCCNC(=O)C(=O)Nc2cc(F)ccc2F)n1`: -7% and 1.36.
In the case of `CCCN(Cc1c(C)nn(-c2ccccc2)c1N1CCN(CC)CC1)S(=O)(=O)c1ccc(C)cc1`, the “% Inhibition” value stood at 39% and the Z score was -5.27.
Take `O=S(=O)(Nc1cnn([C@H]2CCOC2)c1)c1ccccc1`: the “% Inhibition” value is 28% and the Z score is -3.6.
The matching figures for `FC(F)(F)c1cccc(-n2ncnc2CCCn2cccn2)c1`: -4% and 0.44.
The matching figures for `O=C(C1CCC1)N1CCC[C@H]1c1nc2cc(-c3ccc(F)cc3F)ccc2o1`: -34% and 3.25.
The matching figures for `Cn1ncc(CN2CC[C@H](c3ccc(F)cc3)[C@@H](O)C2)c1C1CC1`: -10% and 1.79.
For `COCC(=O)N1CCC[C@H]1C(=O)OC`, the “% Inhibition” value was -2% and the Z score came to 0.25.
The matching figures for `COC[C@H]1CCCN1C(=O)Cn1nc(C)c(C)c1C`: -5% and 0.67.
On the same counts, the results for `COc1ccc(CCNC(=O)CN2C(=O)c3cc4ccccc4cc3Oc3ncccc32)cc1` are -8% and 1.58.
On the same counts, the results for `NC(=O)c1ccc(N2CC3CCCC3C2)nn1` (stereo unspecified) are -9% and 1.06.
Take `COc1cc(-c2nc(C(=O)N(C)Cc3ccccc3)cs2)ccc1OCc1ccc(F)cc1`: the “% Inhibition” value was -10% and the Z score was 1.43.
The matching figures for `O=C(CC1CCCC1)NCc1cn(-c2cccs2)nn1`: 13% and -1.7.
As for `CC[C@@H]1CN(Cc2c(Cl)ccc(OC)c2F)CC[C@]1(C)O`, the “% Inhibition” value is given as -11% and the Z score is recorded as 2.23.
As to `CCN1C[C@@H](C(=O)Nc2ccnn2-c2nc(C)cc(C)n2)CC1=O`, the “% Inhibition” value is given as -3% and the Z score is listed as 0.49.
On the same counts, the results for `CC(=O)N1CCN(C2CN(CCOc3cccc(C)c3)CC2C)CC1` (stereo unspecified) are 7% and -0.96.
On the same counts, the results for `COc1ccccc1[C@H](C)NC(=O)N(CC(C)(C)O)C(C)C` are -12% and 1.01.
Consider `O=C(O)c1ccc2c(c1)NC(=O)c1ccccc1N2`, for which the “% Inhibition” value is -14% and the Z score is recorded as 1.57.
The matching figures for `COc1cccc(N2CCN(C3CCN([C@H]4CCCCC4=O)CC3)CC2)c1`: -8% and 1.07.
On the same counts, the results for `CC(C)N(C)c1cnn([C@H]2CCCN(C(=O)C3(C)COC3)C2)c(=O)c1` are -7% and 1.04.
The matching figures for `COc1cccc2c1OC[C@@H](C(=O)N1CCc3ccccc3C1)C2`: -21% and 3.93.
As to `Cc1cccc(NS(=O)(=O)c2ccc3c(c2)CCN3)n1`, the “% Inhibition” value is reported as -29% and the Z score is 3.38.
On to `CC(=Cc1ccccc1)CN1CC[C@H](c2nccn2C)C1`, for which the “% Inhibition” value was -1% and the Z score turned out to be 0.1.
The matching figures for `O=C(Nc1ccc(N2CCCC2=O)cn1)[C@@H]1C[C@H]2CC[C@@H]1O2`: 3% and -0.37.
For `COCCCn1c(NS(=O)(=O)c2ccc3ccccc3c2)c(S(=O)(=O)c2ccc(C)cc2)c2nc3ccccc3nc21`, the “% Inhibition” value is recorded as 57% and the Z score is -8.33.
`O=C(CCCc1ccccc1)N1CC2CCCC(C1)C2O` (stereo unspecified): the “% Inhibition” value is -5% and the Z score is on record as 0.75.
The matching figures for `Cn1nc([C@@H]2CCCN2C(=O)CC2CCCC2)n(Cc2ccccc2)c1=O`: -15% and 1.99.
The matching figures for `CCc1nnc(CN2C[C@@H](CC(C)C)CC2=O)o1`: -13% and 2.42.
The matching figures for `COCC1(c2noc([C@@H]3CCCS3(=O)=O)n2)CCCC1`: -12% and 1.48.
In the case of `CCOC(=O)c1coc(N2CCC3(CC2)C[C@H](c2ccccc2)CN(C)C3)n1`, the “% Inhibition” value is on record as -7% and the Z score is on record as 1.12.
On the same counts, the results for `COc1cc(CNCCc2ccccc2F)ccc1OCc1nnnn1-c1ccc(C)cc1` are 38% and -1.16.
Consider `CCc1ccc(C(=O)Nc2ccc3c(c2)NCCC3)o1`, for which the “% Inhibition” value is on record as -8% and the Z score is listed as 1.14.
The matching figures for `CN(CCn1cnnc1)c1ccc(C(F)(F)F)cn1`: -7% and 1.15.
With `Cc1cc(C(=O)N2CC(Nc3cccnn3)C2)no1`, the “% Inhibition” value was -15% and the Z score is recorded as 1.78.
In the case of `Cc1cc(-c2c(-c3ccccc3)ncn2[C@H](CO)c2ccccc2)[nH]n1`, the “% Inhibition” value is reported as -1% and the Z score amounted to 0.26.
Turning to `Cc1sc(NC(=O)c2cccs2)c([C@@H](c2ccc(F)cc2)N2CCCC2)c1C`, the “% Inhibition” value worked out at 2% and the Z score is given as -0.38.
Turning to `COc1ccc(NC(=O)[C@@H]2COCC(=O)N2Cc2ccc(C)cc2)c(C)c1`, the “% Inhibition” value was determined as 5% and the Z score is reported as -0.58.
For `CC(C)CCNC(=O)c1ccc(CNS(=O)(=O)c2ccc(-c3cccc(F)c3)s2)cc1`, the “% Inhibition” value is reported as -1% and the Z score came out at 0.18.
On the same counts, the results for `N#CC1(NC(=O)c2cccc(S(=O)(=O)N3CC4CC5CC4C3C5O)c2)CCCC1` (stereo unspecified) are 6% and -0.67.
The matching figures for `C[C@H]1CCCCN1C(=O)c1ccc(NCCC(=O)c2ccc3c(c2)OCO3)cc1`: -5% and 0.59.
For the compound `CS(=O)(=O)c1ccc(-c2ccc3[nH]nnc3c2)cc1`, the “% Inhibition” value was -15% and the Z score came out at 2.06.
The matching figures for `COCCn1c(-c2ccc(C)cc2)cc(C(=O)N2CC3(C2)C[C@](C)(O)CO3)c1C`: 0% and 0.05.
For the compound `O=C(NCC1CCN(Cc2cnc(N3CCOCC3)nc2)CC1)c1ccon1`, the “% Inhibition” value is on record as -5% and the Z score is reported as 0.95.
On the same counts, the results for `O=C(c1ccccc1)N1CCC2(CC1)C[C@@H](N1CCOCC1)CCO2` are -7% and 1.42.
On the same counts, the results for `CC(C)CN1C(=O)CC[C@@H](C(=O)Nc2ccc3c(c2)N(C)CCC3)[C@H]1C` are -11% and 1.41.
As to `C#Cc1cccc(NC(=O)C(=O)N(CC)CCc2nccs2)c1`, the “% Inhibition” value is recorded as -2% and the Z score turned out to be 0.24.
On the same counts, the results for `Cc1ccc(NC(=O)Cn2cc(S(=O)(=O)N3CCOCC3)ccc2=O)cc1` are -1% and 0.16.

The record behind these values is ChEMBL document CHEMBL4888484, “Replenishing the malaria drug discovery pipeline: Screening and hit evaluation of the MMV Hit Generation Library 1 (HGL1) against asexual blood stage Plasmodium falciparum ,using a nano luciferase reporter read-out” (2022).
